The text below walks through data of PMC9922296, “Mechanistic insights into RNA surveillance by the canonical poly(A) polymerase Pla1 of the MTREC complex” (Nature Communications, 2023).

No constants are given. Whether binding was seen depends on the method and setting. For part of these data: In cells and extracts the contact can be indirect. Some binding calls cover weakened binding; strength is not graded here. For part of these data: Where a sequence is shown, tags or fusion partners need not be part of it.

Test [1] addresses T1, His6-MBP fused to Red1 residues 240-345 (S. pombe) (UniProt Q9UTR8).
T1 sequence: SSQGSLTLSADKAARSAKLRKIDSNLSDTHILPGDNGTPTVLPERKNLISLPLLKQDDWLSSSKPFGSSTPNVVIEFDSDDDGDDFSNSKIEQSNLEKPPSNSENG
As to the kind of experiment: pull-down; bacterial cell lysates co-expressing His6-MBP-Red1 fragments with untagged Pla1RRM; elution fractions on 12% SDS-PAGE.

Test [2] deals with T2, His6-MBP fused to Red1 residues 288-322 (S. pombe) (UniProt Q9UTR8).
T2 sequence: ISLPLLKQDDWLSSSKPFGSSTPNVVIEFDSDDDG
The test is described as above.

Test [3] has as its target T3, His6-MBP fused to Red1 residues 288-345 (S. pombe) (UniProt Q9UTR8).
T3 sequence: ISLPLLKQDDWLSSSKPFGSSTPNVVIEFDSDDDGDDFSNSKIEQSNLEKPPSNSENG
The description is as above.

Test [4] has as its target T4, Full-length Pla1 fused to the Gal4 DNA binding domain (S. pombe) (UniProt Q10295).
T4 sequence: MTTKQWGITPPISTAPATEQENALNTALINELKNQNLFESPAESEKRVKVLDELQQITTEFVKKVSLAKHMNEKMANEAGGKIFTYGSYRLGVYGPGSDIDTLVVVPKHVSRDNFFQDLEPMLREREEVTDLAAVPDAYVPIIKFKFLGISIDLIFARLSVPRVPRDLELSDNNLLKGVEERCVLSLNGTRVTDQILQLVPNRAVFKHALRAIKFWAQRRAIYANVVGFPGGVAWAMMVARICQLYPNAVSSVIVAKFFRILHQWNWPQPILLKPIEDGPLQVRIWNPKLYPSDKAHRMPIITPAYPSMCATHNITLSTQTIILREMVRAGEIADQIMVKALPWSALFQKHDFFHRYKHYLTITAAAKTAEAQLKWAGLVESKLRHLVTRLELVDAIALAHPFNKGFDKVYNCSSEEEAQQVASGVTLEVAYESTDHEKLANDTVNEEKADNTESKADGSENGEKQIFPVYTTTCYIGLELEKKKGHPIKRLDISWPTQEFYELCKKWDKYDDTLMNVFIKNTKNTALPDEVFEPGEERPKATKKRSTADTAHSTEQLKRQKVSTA
The test is described as follows: two-hybrid; Gal4 DNA binding domain (pGBKT7) and activation domain (pGADT7) fusions co-transformed into PJ69-4A; 10-fold serial dilutions on SDC-Leu-Trp, -His (weak) and -Ade (strong), 30 °C, 3 days.

Test [5] addresses T5, Pla1 RRM domain (residues 352-566) fused to the Gal4 DNA binding domain (S. pombe) (UniProt Q10295).
T5 sequence: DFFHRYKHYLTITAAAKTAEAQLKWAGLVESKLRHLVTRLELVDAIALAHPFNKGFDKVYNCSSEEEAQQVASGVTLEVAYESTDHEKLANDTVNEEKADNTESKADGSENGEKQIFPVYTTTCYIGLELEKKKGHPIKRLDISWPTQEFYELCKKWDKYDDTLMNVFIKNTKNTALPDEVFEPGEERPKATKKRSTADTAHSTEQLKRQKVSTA
The test is described as above.

Test [6] has as its target T6, Pla1 NTD-MD (residues 1-352) fused to the Gal4 DNA binding domain (S. pombe) (UniProt Q10295).
T6 sequence: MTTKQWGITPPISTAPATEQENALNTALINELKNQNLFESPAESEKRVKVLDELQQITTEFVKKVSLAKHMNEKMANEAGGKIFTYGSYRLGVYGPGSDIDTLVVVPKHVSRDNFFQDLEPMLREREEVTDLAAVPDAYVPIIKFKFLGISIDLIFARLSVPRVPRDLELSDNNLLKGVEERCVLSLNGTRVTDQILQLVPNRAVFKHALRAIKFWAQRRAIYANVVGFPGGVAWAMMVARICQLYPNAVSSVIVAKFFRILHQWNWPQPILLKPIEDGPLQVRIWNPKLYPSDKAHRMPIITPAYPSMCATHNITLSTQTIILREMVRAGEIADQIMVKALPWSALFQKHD
Described as above.

In test [7] the target is T7, Pla1FL (full-length Pla1, residues 1-566) (S. pombe) (UniProt Q10295).
T7 sequence: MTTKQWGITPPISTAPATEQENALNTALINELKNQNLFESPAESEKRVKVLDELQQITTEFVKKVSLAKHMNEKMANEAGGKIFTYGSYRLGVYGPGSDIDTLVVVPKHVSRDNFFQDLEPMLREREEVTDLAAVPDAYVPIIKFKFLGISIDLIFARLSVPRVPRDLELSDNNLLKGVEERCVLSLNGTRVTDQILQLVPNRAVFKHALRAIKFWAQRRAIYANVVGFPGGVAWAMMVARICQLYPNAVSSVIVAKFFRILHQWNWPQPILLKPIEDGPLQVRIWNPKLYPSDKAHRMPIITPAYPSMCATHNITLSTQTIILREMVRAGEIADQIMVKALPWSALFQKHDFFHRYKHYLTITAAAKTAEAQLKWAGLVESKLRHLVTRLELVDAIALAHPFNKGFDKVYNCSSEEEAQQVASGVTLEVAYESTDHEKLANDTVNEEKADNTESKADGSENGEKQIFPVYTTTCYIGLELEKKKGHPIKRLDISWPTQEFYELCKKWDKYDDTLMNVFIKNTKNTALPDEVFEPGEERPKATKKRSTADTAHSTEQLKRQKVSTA
The test is described as follows: SEC; Pla1FL mixed with Red1 288-345 (molar ratio 1:1.2), elution profile compared with free Pla1FL and free Red1 288-345; 20 mM HEPES pH 7.5, 150 mM NaCl, 1 mM DTT; both purified. (SEC sorts molecules by how far they enter the pores of the column.)

Test [8] deals with T8, Pla1RRM (C-terminal RRM domain of Pla1, residues 352-566) (S. pombe) (UniProt Q10295).
T8 sequence: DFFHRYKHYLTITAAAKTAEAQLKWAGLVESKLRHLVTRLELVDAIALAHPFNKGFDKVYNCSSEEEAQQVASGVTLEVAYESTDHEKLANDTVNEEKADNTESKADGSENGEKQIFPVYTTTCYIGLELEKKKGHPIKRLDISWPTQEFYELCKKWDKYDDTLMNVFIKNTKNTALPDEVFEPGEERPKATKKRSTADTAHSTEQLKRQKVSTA
As to the kind of experiment: condition: 400-500 µM in the syringe, 40-50 µM in the cell; ITC; Red1 or Iss1 construct in the syringe (400-500 µM) titrated into Pla1RRM (wild type or mutant) in the cell (40-50 µM); 25 °C; 20 mM HEPES pH 7.5, 150 mM NaCl, 2 mM BME; one-binding site model; each independent measurement listed; both purified.

The target in test [9] is T9, C-terminal RRM domain of Pla1 (Pla1RRM, residues 352-566), purified (S. pombe) (UniProt Q10295).
T9 sequence: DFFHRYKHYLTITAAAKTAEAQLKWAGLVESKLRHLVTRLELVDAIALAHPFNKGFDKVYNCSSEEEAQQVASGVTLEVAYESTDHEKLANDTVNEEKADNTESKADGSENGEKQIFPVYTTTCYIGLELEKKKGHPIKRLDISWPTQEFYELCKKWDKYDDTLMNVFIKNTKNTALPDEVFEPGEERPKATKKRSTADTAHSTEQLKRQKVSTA
As to the kind of experiment: condition: 400-500 µM in the syringe, 40-50 µM in the cell; ITC; MicroCal PEAQ-ITC, 25 °C, 20 mM HEPES pH 7.5, 150 mM NaCl, 2 mM BME; 40-50 µM protein in the cell, 400-500 µM ligand in the syringe; one-binding site model; both purified.

B1: C-terminal RRM domain of Pla1 (Pla1RRM, residues 352-566), purified (domain or fragment)
chain: DFFHRYKHYLTITAAAKTAEAQLKWAGLVESKLRHLVTRLELVDAIALAHPFNKGFDKVYNCSSEEEAQQVASGVTLEVAYESTDHEKLANDTVNEEKADNTESKADGSENGEKQIFPVYTTTCYIGLELEKKKGHPIKRLDISWPTQEFYELCKKWDKYDDTLMNVFIKNTKNTALPDEVFEPGEERPKATKKRSTADTAHSTEQLKRQKVSTA
For the molecule B1, the binding result in test [1], in test [2] and in test [3] was “binds” each time.

B2: Red1 with residues 288-345 deleted (yeast two-hybrid) (protein, UniProt Q9UTR8)
chain: MSRSINLDELRKKALESKKKNEEDESNDSDKEDGEISEDDPVIDQSNSVPPMKVPTFPEQIPQLPPFDRFPGTNANFFPFGAPFMLPPALMFGPNTVPFFPQTASSNKTFSKRKRSSENSFNNRNKAKSSETSDSSNTSQSFKENRALKDTATSRPLALSSDTSYQKSEKAKSEKSPFLSTSKNSDANYSKTTNQKEAEKAVSQLFEVGVRFNDFIAEGIEPSVVHTLFLKLGLDSSSASSQGSLTLSADKAARSAKLRKIDSNLSDTHILPGDNGTPTVLPERKNLLTMSRSDYLALLRNKEEEIRRMTKLILRLESNKKPYRSPTSAADMKLPSVPVAAVDNKSKTHLDTFEKVVDLSSKADFVEAGPSISSSGASSSAATTNSDTTEQILEAPWLRKTEQIAVVHEEHPAQIKKSEIDILNNLIEKEEGELTKYQTLVKSKTEILTQLYTRKKQLLEQQGKGNVACLPKESDLSMDSITEVSAQADENSSQILSSKTSNAPNGTTETDFEDKVPLVDYISPFYRFKSYRFNQQFVERVPLKYRSLTYSNKIEPMKVFCKYETTGGVCNDDHCEASHFRDIKMTDDEIIQDLSRYIEGNDEIEKESYKSGLDIVMKNTDENTDFVDVATRIVEYHNLWKSERMTIPVAKVSI
Regarding B2, the binding result in [4] is “no binding”.

B3: Full-length Red1 fused to the Gal4 activation domain (protein, UniProt Q9UTR8 1-712)
chain: MSRSINLDELRKKALESKKKNEEDESNDSDKEDGEISEDDPVIDQSNSVPPMKVPTFPEQIPQLPPFDRFPGTNANFFPFGAPFMLPPALMFGPNTVPFFPQTASSNKTFSKRKRSSENSFNNRNKAKSSETSDSSNTSQSFKENRALKDTATSRPLALSSDTSYQKSEKAKSEKSPFLSTSKNSDANYSKTTNQKEAEKAVSQLFEVGVRFNDFIAEGIEPSVVHTLFLKLGLDSSSASSQGSLTLSADKAARSAKLRKIDSNLSDTHILPGDNGTPTVLPERKNLISLPLLKQDDWLSSSKPFGSSTPNVVIEFDSDDDGDDFSNSKIEQSNLEKPPSNSENGLTMSRSDYLALLRNKEEEIRRMTKLILRLESNKKPYRSPTSAADMKLPSVPVAAVDNKSKTHLDTFEKVVDLSSKADFVEAGPSISSSGASSSAATTNSDTTEQILEAPWLRKTEQIAVVHEEHPAQIKKSEIDILNNLIEKEEGELTKYQTLVKSKTEILTQLYTRKKQLLEQQGKGNVACLPKESDLSMDSITEVSAQADENSSQILSSKTSNAPNGTTETDFEDKVPLVDYISPFYRFKSYRFNQQFVERVPLKYRSLTYSNKIEPMKVFCKYETTGGVCNDDHCEASHFRDIKMTDDEIIQDLSRYIEGNDEIEKESYKSGLDIVMKNTDENTDFVDVATRIVEYHNLWKSERMTIPVAKVSI
On to B3, for which the binding result was “binds” in test [5], “binds” in test [4] and “no binding” in test [6].

B4: Red1 288-345 (domain or fragment, S. pombe)
chain: ISLPLLKQDDWLSSSKPFGSSTPNVVIEFDSDDDGDDFSNSKIEQSNLEKPPSNSENG
notes: source: E. coli BL21 (DE3), purified (His-Trap, TEV cleavage, second IMAC, Superdex 75); not shown: GB1, N-terminal, cleaved; His6, C-terminal, kept
As to B4, the binding entry in [7] was “binds”.

B5: Red1 288-345 RSRR (domain or fragment, UniProt Q9UTR8 288-345)
chain: ISLPLLKQDDWLSSSKPFGSSTPNVVIEFRSRRDGDDFSNSKIEQSNLEKPPSNSENG
B5: the binding entry in test [8] is listed as “no binding”.

B6: W298A/F305A double mutant of Red1 residues 288-345 (domain or fragment, UniProt Q9UTR8 288-345)
chain: ISLPLLKQDDALSSSKPAGSSTPNVVIEFDSDDDGDDFSNSKIEQSNLEKPPSNSENG
As for B6, the binding entry in test [9] was “no binding”.

B7: Red1 288-345 W298A/F305A (domain or fragment, UniProt Q9UTR8 288-345)
chain: ISLPLLKQDDALSSSKPAGSSTPNVVIEFDSDDDGDDFSNSKIEQSNLEKPPSNSENG
Consider B7, for which, in test [8], the binding result is recorded as “no binding”.

B8: Red1_(RSRR): Red1 residues 288-345 with D317/S318/D319/D320 changed to RSRR (domain or fragment, UniProt Q9UTR8 288-345)
chain: ISLPLLKQDDWLSSSKPFGSSTPNVVIEFRSRRDGDDFSNSKIEQSNLEKPPSNSENG
Consider B8, for which the binding entry in test [9] is “no binding”.
